Measurements reported in paper PMC4336329 (PLoS ONE, 2015).
Among all 310,000 compounds or so, about 2,200 (0.71%) showed an effect of 50% or more. The effect is printed as a negative number. The list shows a part of the results.

biological target: human ether-à-go-go-related gene (hERG) potassium channel (human, UniProt Q12809); experiment: primary screen, population patch clamp on CHO cells stably expressing hERG
Sequence (Q12809 whole entry, looked up): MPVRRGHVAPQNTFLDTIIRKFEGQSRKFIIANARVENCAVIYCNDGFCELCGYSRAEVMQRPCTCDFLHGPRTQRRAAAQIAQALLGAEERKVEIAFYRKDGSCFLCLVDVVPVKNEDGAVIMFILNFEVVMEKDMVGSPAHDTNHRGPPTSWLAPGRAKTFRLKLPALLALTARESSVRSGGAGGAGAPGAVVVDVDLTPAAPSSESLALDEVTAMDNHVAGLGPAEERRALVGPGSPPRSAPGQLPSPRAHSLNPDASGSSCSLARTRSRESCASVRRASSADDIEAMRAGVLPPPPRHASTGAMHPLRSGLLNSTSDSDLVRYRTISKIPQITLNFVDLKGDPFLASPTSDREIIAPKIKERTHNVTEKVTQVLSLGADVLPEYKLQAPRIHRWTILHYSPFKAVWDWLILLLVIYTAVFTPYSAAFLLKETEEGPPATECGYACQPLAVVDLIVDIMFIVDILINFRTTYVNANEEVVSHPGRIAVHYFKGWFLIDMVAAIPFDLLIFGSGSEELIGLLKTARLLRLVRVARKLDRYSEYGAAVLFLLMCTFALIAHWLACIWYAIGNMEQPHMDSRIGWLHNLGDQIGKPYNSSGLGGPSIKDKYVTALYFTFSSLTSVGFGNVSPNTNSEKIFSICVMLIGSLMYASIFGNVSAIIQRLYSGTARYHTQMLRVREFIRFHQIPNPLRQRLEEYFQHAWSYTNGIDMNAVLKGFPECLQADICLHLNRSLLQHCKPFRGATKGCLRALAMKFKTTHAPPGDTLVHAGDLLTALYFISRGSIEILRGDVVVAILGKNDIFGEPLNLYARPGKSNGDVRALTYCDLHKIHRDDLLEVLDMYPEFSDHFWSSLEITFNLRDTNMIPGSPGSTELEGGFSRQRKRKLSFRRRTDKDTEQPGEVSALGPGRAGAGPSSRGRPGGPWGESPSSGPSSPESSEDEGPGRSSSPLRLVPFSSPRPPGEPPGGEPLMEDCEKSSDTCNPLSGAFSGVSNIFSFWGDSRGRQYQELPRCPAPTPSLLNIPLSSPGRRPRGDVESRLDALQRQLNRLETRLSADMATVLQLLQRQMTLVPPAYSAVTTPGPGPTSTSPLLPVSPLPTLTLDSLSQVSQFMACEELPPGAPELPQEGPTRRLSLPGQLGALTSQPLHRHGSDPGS

SMILES | hERG current change (%, negative = inhibition) at 1uM
O=C(NCCNS(=O)(=O)c1ccccc1)c1ccc([N+](=O)[O-])cc1 | 8.99%
O=C(CSc1ccc(-c2ccc(Br)cc2)nn1)N1CCOCC1 | 8.33%
COc1ccc(/C=C2/S/C(=N/S(=O)(=O)Cc3ccccc3)NC2=O)cc1OC | 4.21%
CC(C)CNS(=O)(=O)c1ccc(OCC(=O)NCc2ccco2)cc1 | 12.2%
CCC1(C)Cc2c(sc3nc(NN)n(C)c(=O)c23)CO1 (centres unmarked) | 9.17%
COC(=O)c1c(NC(=O)c2ccc(C)c(S(=O)(=O)Nc3ccccc3C)c2)sc2c1CCCC2 | -6.38%
Cc1nn(-c2ccccc2)c(Cl)c1CN(C(=O)CCl)c1ccc(Cl)cc1 | 4.08%
COc1ccc(C(=O)NCC2CCCN2S(=O)(=O)c2cccs2)cc1 (centres unmarked) | 10.4%
COc1ccc(OC)c(Nc2nc(-c3ccccc3O)nc3ccccc23)c1 | 12.6%
O=C(Nc1nnc(C2CCCC2)s1)C1CCN(S(=O)(=O)c2ccc(Cl)cc2)CC1 | 16.9%
COc1cc(C(=O)NNC(=S)NCc2ccco2)cc(OC)c1OC | 16.9%
CC(C)CN1CCN(Cc2ccc3ncccc3c2)CC1CCO (centres unmarked) | 4.26%
CCN1C(=O)C(=Cc2ccc(C)s2)C(=O)N(CC)C1=S | 8.29%
Cc1ccc(-c2nc(C3CCCN(S(=O)(=O)c4ccc(C(F)(F)F)cc4)C3)no2)cc1 (centres unmarked) | 4.01%
CCCc1ccc2oc(C(=O)N3CCN(CCC(N)=O)CC3)c(C)c2c1 | 7.88%
CC#CC(=O)NCC1(N(C)Cc2ccccc2)Cc2ccccc2C1 | 9.72%
COC(=O)C1CSC(C(=O)OC)N1C(=O)CN1CC(C)OC(C)C1 (centres unmarked) | -4.93%
CN1C2C=C(N(CCc3c[nH]c4ccccc34)C(=O)c3ccc(Cl)cc3)CC1CC2.Cl (centres unmarked) | -41.4%
CCOC(=O)c1c(C)[nH]c(C)c1C(=O)CSc1nc2ccccc2n1CCOC | 7.02%
Cc1cc(C)cc(N(C(C)C(=O)NC2CCCC2)S(C)(=O)=O)c1 (centres unmarked) | 8.62%
O=C(c1cc(-c2ccc(Cl)cc2)on1)N1CCN(c2ccc(F)cc2)CC1 | 11.9%
Cc1ccc2nc(SCC(=O)N3c4ccccc4CC3C)c(C)cc2c1 (centres unmarked) | 11.4%

SMILES | hERG current change (%, negative = inhibition) at 1uM
CCCS(=O)(=O)c1nc(S(=O)(=O)c2ccc(C)cc2)c(NCCN2CCOCC2)s1 | 10.7%
Cn1cc(CNC(=O)c2ccc3nc(Cc4ccccc4F)oc3c2)cn1 | 13.2%
CCOc1ccccc1C(=O)N1c2ccccc2Sc2ccccc21 | 8.01%
COc1ccccc1CC(=O)NC1CC(C)(C)NC(C)(C)C1.Cl | -1.09%
CCc1nc2cccnc2n1-c1ccc(C(=O)O)cc1 | 7.99%
CCCCn1c2ccc(F)cc2c2nnc(SCCN3CCOCC3)nc21 | -8.43%
COc1ccc(NC(=O)CSc2nnc(-c3ccc(C)cc3)n2N)cc1 | 8.38%
CN(C)C/C(Cl)=C(\Cl)c1ccccc1 | 11.8%
Cc1cc(C)cc(Nc2ccc(C(=O)O)cc2N)c1 | 11.5%
NS(=O)(=O)c1ccc(CCNC(=O)CSc2nnc3ccccn23)cc1 | 15.3%
CC(NS(=O)(=O)c1ccc(CCC(=O)NCC2CCCO2)cc1)c1ccccc1 (centres unmarked) | 11.6%
COc1cc(C(=O)Nc2ccccc2N2CCOCC2)ccc1OCc1c(C)noc1C | 3.39%
O=C(CCNC(=O)C1CCN(S(=O)(=O)c2ccc(F)cc2)CC1)NCc1ccccc1 | 14%
CCOc1ccc(-c2nnc(SCC(=O)N3CCNC3=O)o2)cc1 | 19.9%
Cc1cc(OCC(=O)N2CCN(c3cccc(Cl)c3)CC2)c2c(C)c(C)c(=O)oc2c1 | 2.91%
O=C(C1COc2ccccc2O1)N1CCN(Cc2ccccc2)CC1 (centres unmarked) | 7.8%
C/C(=N\O)C(C)(C)Nc1cccc(Br)c1 | 14.3%
COc1ccc(-n2c(SCC(N)=O)nc3nc4c(cc3c2=O)COC(C)(C)C4)cc1 | 12.9%
COc1ccc(N=Nc2c(O)[nH]c(=S)[nH]c2=O)cc1 | 3.05%
O=C(O)CN(c1ccccn1)S(=O)(=O)c1ccccc1 | -0.863%
O=C(O)c1ccc(N2C(=O)CC(Cc3ccccc3)C2=O)cc1 (centres unmarked) | 11.6%
CCS(=O)(=O)c1nc(S(=O)(=O)c2ccc(Cl)cc2)c(NCCCN2CCOCC2)s1 | 8.39%
